Measurements published in the supplement of paper PMC7826260.
Some of the results follow. Cleavage of a single-stranded DNA pool by Rep nickase domains was read by sequencing for 1 h at 37 °C with 3 µM enzyme; only the middle of the 90-letter strands is printed. Values are log2 of uncut reads against the no-enzyme pool; the lower, the more was cut; hits are not called. Counts are relative to all reads, so uncut sequences can rise above 0 when many others are cut.

test system: T1, Rep nickase domain of tomato golden mosaic virus; assay: uncleaved DNA left, log2 of reads against the no-enzyme library (log2 ratio); higher = less cleavage (more negative = more Rep cleavage of the k-mer); sequences stand for … in CTCGTCCG…ACCGGAGA
T1 sequence (protein, residues 1-124, tag omitted): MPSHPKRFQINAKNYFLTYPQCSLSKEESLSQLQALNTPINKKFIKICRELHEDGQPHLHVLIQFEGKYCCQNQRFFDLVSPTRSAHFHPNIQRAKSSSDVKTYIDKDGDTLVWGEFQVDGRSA
Experimental: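 A pool of 90-nt single-stranded DNAs with seven random bases just before the constant AC of the nick site (name = the seven bases) was cut by 3 µM recombinant His6-SUMO-tagged Rep nickase domain (300 nM DNA, 50 mM HEPES pH 8.0, 50 mM NaCl, 1 mM MnCl2, 1 h, 37 °C, three replicates). Uncut DNA was amplified and sequenced.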

Row | Sequence | uncleaved DNA left (log2)
1 | TAACCGA | -0.0621
2 | GCGCTCC | 0.00968
3 | GACTATC | 0.145
4 | CATTCGC | -0.0851
5 | ACGCACA | 0.0372
6 | CCCCGGT | 0.161
7 | CAGTTCT | -0.364
8 | TCACCCC | -0.282
9 | GGGTGAG | 0.16
10 | CAGCACG | -0.0345
11 | AGACAAT | 0.0472
12 | CTTCCTC | -0.134
13 | CAGGGAA | -0.0401
14 | CGGTCAG | 0.0495
15 | TTCCCGT | -0.00602
16 | CTCGTAC | 0.132
17 | CGCGCGA | -0.279
18 | AGTAGAA | 0.157
19 | TCGCCCT | -0.193
20 | TCATATT | -3.34

Row | Sequence | uncleaved DNA left (log2)
21 | GGCACCT | 0.00209
22 | CGTGTGT | -0.125
23 | TCCACAG | -0.0307
24 | AAAGATG | 0.188
25 | TACTCTA | 0.0301
26 | GGAAGGG | 0.0933
27 | TCCGCAT | -0.294
28 | AACAAAA | -0.0136
29 | CAACGTC | -0.136
30 | AGTCGAT | 0.0299
31 | ATGGCTG | 0.0887
32 | TACGAGT | -0.0285
33 | GTATGGG | 0.117
34 | TGATCAT | -0.0882
35 | GTCGACT | -0.14
36 | GTTGAAA | 0.152
37 | ACTGGAG | 0.0355
38 | GATTTGC | -0.133
39 | AAAGCAC | 0.112
40 | ATCATAT | -0.0822
